# The list shows a part of the results.
# T1: UNK ZnF1-3 (human, UniProt Q9C0B0 31-174)
# T1 sequence: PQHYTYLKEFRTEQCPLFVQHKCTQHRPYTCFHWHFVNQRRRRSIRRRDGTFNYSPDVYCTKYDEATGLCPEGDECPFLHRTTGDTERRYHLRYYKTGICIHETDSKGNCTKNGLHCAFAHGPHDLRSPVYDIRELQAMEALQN
# B1: 114968166_114968286_1623_CDS_ENSG00000197323_ENST00000358465|human|control|control (ssRNA)
# RNA: GGGAGUUCUACAGUCCGACGAUCCUGUUGCAACUGCUGAUGUUUCUGUGCAUAUACUUGUUGUUGCAUGUGCUGGAGUCGAAGCUGUGCUAAGUUAAUCUGUCCAGGGGUUUUACUAAUGUGGUUUGUCCCUGGAGGAACUUGCAACAGAGGAUUGAGCAUCA
# B2: chr17:45760540:45760541:+_ENSG00000108424_ENST00000290158|hu_hu|FALSE|FALSE (ssRNA)
# RNA: GGGAGUUCUACAGUCCGACGAUCUUUCCCUAGAGUAAAAAAAACAAAAAACAAAACCAAAAAAAAAAAACAAAACAAAACCUAAAGAGCGUCUUUCCUCUGUGUGUGUGUUUUUUUUUUUUUUUUUUUUUUUUUUUUUACAUCCAACAGAGGAUUGAGCAUCA
# B3: chr18:34472677:34472678:+_ENSMUSG00000005871_ENSMUST00000115781|mus_hu|FALSE|FALSE (ssRNA)
# RNA: GGGAGUUCUACAGUCCGACGAUCUGCACUAUGUAUUUUAUGGGCUAGGUCGGCUGGGUAUUGACCAUAACUGCAAAACUUACUUUCAUCAUCUUCAGAAUAGGAUUCAAUCGAGGGUUUCAUUUGACCUCUUUUACCAUAACCCAACAGAGGAUUGAGCAUCA
# B4: 171526598_171526718_1044_CDS_ENSG00000117523_ENST00000495585|human|control|control (ssRNA)
# RNA: GGGAGUUCUACAGUCCGACGAUCCUGGAACUGAAGCUGAGACUGAGGCUGAGGCUGAAACUGGAGCUAAGGGUGAGGCUGGAACUGGAGCUGAGGUUGAGGCCAGAACUGGAGCUAAAGUUGAGGCUGGAACCGGAGCUGAGGCAACAGAGGAUUGAGCAUCA
# B5: chr14:70181642:70181643:+_ENSG00000100647_ENST00000342745|hu_hu|FALSE|FALSE (ssRNA)
# RNA: GGGAGUUCUACAGUCCGACGAUCACCCAAACUGAUUGAGUGACAUCCUGCACAGAGUCAAUUAUGAAUGUGUUGUUUUAAACCAUUAUAUGAGUACCAUUCUGCAAAGGAUUCCAUAGUGGUGCGAUAACCUGAAGAAGCCAGCAACAGAGGAUUGAGCAUCA
# B6: 20567692_20567812_725_CDS_ENSG00000121741_ENST00000382871|human|control|control (ssRNA)
# RNA: GGGAGUUCUACAGUCCGACGAUCGCCAUCAUUCACAGAGCUUACACCUGUUUCUAAAGUUGUAACAUUAGCAAUCUGAAUUUCAGAGUCUGGUUCUGUGGUGAUACCACUAUUACCCAUUCCUGCAUUUACCUUACUUCUUGACAACAGAGGAUUGAGCAUCA
# Molecular target: T1, UNK ZnF1-3
# Assay: nsRBNS (natural sequence RNA bind-n-seq); RBNS binding buffer (assumed for nsRBNS): 25 mM Tris pH 7.5, 150 mM KCl, 3 mM MgCl2, 0.01% Triton X-100, 500 ug/ml BSA, 20 U/ml SUPERase-In, 4 C; UNK is unkempt and MSI1 is Musashi-1; names of the RNAs are library labels; protein concentration not given here; high values mean tight binding
row,Binder,binding signal [enrichment R]
1,B1,0.631
2,B2,2.03
3,B3,0.798
4,B4,2.18
5,B5,1.03
6,B6,0.801

# Source: PMC12136788
